# Data: PubChem BioAssay AID720709 (National Center for Advancing Translational Sciences (NCATS), 2013)
# About 520 (0.14%) of roughly 360,000 compounds were called active. This list was built around the results that the source calls inconclusive (neither active nor inactive); the mix of calls is not that of the screen. Calls follow the shape of the dose curve; as a rule, active = well fitted inhibition curve with a large enough effect; inconclusive = small, poorly fitted or top-dose-only effect; inactive = no such curve, though single readings can be large or run the other way. No potency is given beside an inconclusive call; the fits are too rough.
# Target: Rap guanine nucleotide exchange factor 3 (Homo sapiens) (UniProt O95398)
# Assay: qHTS for Antagonist of cAMP-regulated guanine nucleotide exchange factor 3 (EPAC1): primary screen; also: nearly all actives have a fitted effect of over 50% in size;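 as to activity change, negative = inhibition: plate controls were vehicle for no effect and positive control for full effect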
# Conditions: EPAC1 GEF assay, Rap1b-BODIPY-GDP exchange fluorescence; activity change, negative = inhibition: at 115 µM (top of the series)
# Potency is read from the fitted curve at half-maximal effect; tags tell the direction and shape of the fitted curve.
# Sequence of UniProt O95398 (O95398 whole entry, looked up): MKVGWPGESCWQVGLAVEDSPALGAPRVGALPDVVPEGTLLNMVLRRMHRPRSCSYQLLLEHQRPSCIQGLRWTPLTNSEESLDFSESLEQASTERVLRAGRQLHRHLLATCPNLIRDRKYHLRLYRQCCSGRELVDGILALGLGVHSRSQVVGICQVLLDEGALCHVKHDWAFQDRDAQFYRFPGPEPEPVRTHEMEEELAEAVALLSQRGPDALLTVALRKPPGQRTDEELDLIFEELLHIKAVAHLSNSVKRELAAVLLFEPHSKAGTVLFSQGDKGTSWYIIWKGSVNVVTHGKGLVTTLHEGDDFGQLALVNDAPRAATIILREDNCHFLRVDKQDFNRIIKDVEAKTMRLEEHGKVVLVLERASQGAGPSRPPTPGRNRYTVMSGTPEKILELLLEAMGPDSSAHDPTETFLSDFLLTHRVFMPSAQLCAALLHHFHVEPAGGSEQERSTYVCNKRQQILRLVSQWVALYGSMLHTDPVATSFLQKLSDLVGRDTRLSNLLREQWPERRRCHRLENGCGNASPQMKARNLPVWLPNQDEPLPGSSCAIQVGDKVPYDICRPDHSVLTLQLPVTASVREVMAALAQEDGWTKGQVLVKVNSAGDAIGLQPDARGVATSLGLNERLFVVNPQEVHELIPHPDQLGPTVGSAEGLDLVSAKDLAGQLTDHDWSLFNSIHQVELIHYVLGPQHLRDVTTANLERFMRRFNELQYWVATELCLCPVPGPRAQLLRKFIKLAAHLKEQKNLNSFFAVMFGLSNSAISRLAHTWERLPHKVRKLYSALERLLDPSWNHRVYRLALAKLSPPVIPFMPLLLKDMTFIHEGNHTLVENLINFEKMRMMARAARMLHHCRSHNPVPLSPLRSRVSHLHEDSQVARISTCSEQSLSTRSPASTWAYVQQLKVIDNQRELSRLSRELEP
Compound,Potency,"activity change, negative = inhibition"
COc1ccccc1NS(=O)(=O)c1cccc(C(=O)NNC(=O)C(NC(N)=O)C(C)C)c1 (stereo unspecified),"inconclusive [inhibitor, single point]",
Cc1ncc(CO)c2c1Oc1nc(-c3ccccc3)nc(SCC(=O)N3CCCCC3)c1C2,"inconclusive [inhibitor, full curve]",
CC(C)CNS(=O)(=O)c1cc2c3c(c1)CCC(=O)N3CCC2,"inconclusive [inhibitor, partial curve, poor fit]",
O=[N+]([O-])c1ccccc1C(=Nc1ccccc1)c1c(O)cc(O)cc1O,,inactive: -24.9%
CCCCn1c(NC(=O)c2ccccc2Cl)c(C#N)c2nc3ccccc3nc21,"inconclusive [inhibitor, partial curve]",
Cc1c(C#N)c(O)n(CCO)c(=O)c1N=Nc1ccc2c(c1)COC2=O,"inconclusive [inhibitor, full curve, poor fit]",
OCCN1CCN(c2nc(NCc3ccco3)c3ccccc3n2)CC1,,inactive: 2.13%
CCC(C)[C@H](NC(=O)[C@@H]1CSC2c3ccccc3C(=O)N21)C(=O)NCc1ccco1 (stereo partly specified),"inconclusive [inhibitor, single point]",
Cc1cc(C)n(CC(=O)N2c3ccccc3Sc3ccc(C(F)(F)F)cc32)n1,"inconclusive [inhibitor, single point]",
O=C1NC(=S)S/C1=C\c1cccc([N+](=O)[O-])c1,"inconclusive [inhibitor, partial curve]",
Cc1c(NC(=O)Nc2ccccc2Cl)c(=O)n(-c2ccccc2)n1C,,inactive: 2.69%
COc1ccc(-c2csc(NC(=S)NC(=O)/C=C/c3ccco3)n2)cc1OC,"inconclusive [inhibitor, single point]",
CCCC(=O)Nc1ccc2c(c1)nc1n2CCN(CCOC)C1,"inconclusive [inhibitor, partial curve]",
Cc1cccc(-n2nc3c(c2NC(=O)c2ccco2)CSC3)c1C,"inconclusive [inhibitor, partial curve]",
CCN(CC)S(=O)(=O)c1cc(NC(=O)C2Cc3ccccc3C(=O)O2)ccc1C (stereo unspecified),"inconclusive [inhibitor, full curve, poor fit]",
COc1ccc(NC(=O)c2ccc(NC3=NC4CS(=O)(=O)CC4S3)cc2)cc1 (stereo unspecified),"inconclusive [inhibitor, single point]",
Clc1ccccc1-c1nnc2sc(CCc3ccccc3)nn12,,inactive: -0.798%
COc1ccc(OC)c(NC(=O)C(=O)NNC(=O)COc2ccc(Br)cc2C)c1,"inconclusive [inhibitor, partial curve]",
COc1cc(N2CCC(O)CC2)ccc1Nc1nnc(Cl)c(Nc2ccccc2S(C)(=O)=O)n1,"inconclusive [inhibitor, single point]",
Cc1cc(C)nc(NC(=O)CSc2nn(-c3ccccc3)c(=S)s2)n1,"inconclusive [inhibitor, single point]",
O=C(NCc1ccco1)c1ccc(Cn2c(=S)[nH]c3ccccc3c2=O)cc1,"inconclusive [inhibitor, full curve, poor fit]",

Compound,Potency,"activity change, negative = inhibition"
O=C(CSc1ccccc1)Nc1ccccc1C(=O)O,,inactive: 5.39%
CC(C1SC(=S)NC1=O)C1SC(=S)NC1=O (stereo unspecified),"inconclusive [inhibitor, single point]",
CCC(=O)c1ccc(OCC(=O)NCCC2=CCCCC2)c(OC)c1,"inconclusive [inhibitor, single point]",
O=C1C(=O)N(Cc2cccnc2)C(c2cccc(O)c2)/C1=C(\O)c1ccc2c(c1)OCCO2 (stereo unspecified),"inconclusive [inhibitor, partial curve]",
Cc1ccc(-c2cc(C(=O)N/N=C/c3c(C)nn(-c4ccccc4)c3C)n[nH]2)s1,"inconclusive [inhibitor, single point]",
CCOC(=O)C1=C(C)Nc2ccccc2N=C1NC(=O)c1ccc(Cl)c(S(=O)(=O)N2CCCC2)c1,"inconclusive [inhibitor, full curve]",
O=C(O)c1cc(N/N=C/c2ccc(-c3ccccc3)cc2)ccc1Cl,"inconclusive [inhibitor, single point]",
CSc1nc(SCC(N)=O)c2c3c(sc2n1)CN(C)CC3,"inconclusive [inhibitor, partial curve]",
COCCCn1c(SCC(=O)Nc2ccc(C(=O)OC)cc2)nc2ccccc2c1=O,"inconclusive [inhibitor, partial curve, poor fit]",
COc1cc(/C=C2\CCc3c2nc2ccccc2c3C(=O)O)cc(OC)c1OC,"inconclusive [inhibitor, partial curve]",
O=C(COC(=O)c1cccs1)Nc1nc(-c2ccccc2)cs1,"inconclusive [inhibitor, partial curve, poor fit]",
CC(Oc1ccccc1)C(=O)NC1CCCCCCC1 (stereo unspecified),,inactive: -13%
O=C(N/C(=C\c1cccc(Br)c1)C(=O)N1CCOCC1)c1ccco1,"inconclusive [inhibitor, partial curve]",
CCc1ccc(NC(=O)C2=CC(c3ccc(OC)cc3)=NS(=O)(=O)N2C)cc1,"inconclusive [inhibitor, full curve, poor fit]",
Cc1ccc2nc(N3CCN(Cc4ccc(F)cc4)C3=O)c(C)cc2c1,"inconclusive [inhibitor, single point]",
CC(=O)c1ccc(Nc2nc(NCCO)nc(OC(C(F)(F)F)C(F)(F)F)n2)cc1,"inconclusive [inhibitor, full curve]",
CC(C)NC(=O)/C(C#N)=C\c1ccc(N(C)C)o1,,inactive: -0.138%
Cc1ccc2sc3ccc(NC(=O)c4ccccc4Cl)cc3c(=O)c2c1,"inconclusive [inhibitor, single point]",
CCOc1ccccc1OCCN1CCCC1,,inactive: 7.48%
CC(O)CN1CC(O)=C(c2nc3ccccc3s2)C1=N (stereo unspecified),"inconclusive [inhibitor, partial curve]",
